# Laboratory results reported in the supplement of paper PMC3334620.
# In all, about 33,000 sequences were measured (“E-score (-0.5 to 0.5)”: median about -0.013, highest 2% from about 0.3 on). Some of the results follow.
# Biological target: T1, Msn1 (UniProt P22148)
# T1 sequence: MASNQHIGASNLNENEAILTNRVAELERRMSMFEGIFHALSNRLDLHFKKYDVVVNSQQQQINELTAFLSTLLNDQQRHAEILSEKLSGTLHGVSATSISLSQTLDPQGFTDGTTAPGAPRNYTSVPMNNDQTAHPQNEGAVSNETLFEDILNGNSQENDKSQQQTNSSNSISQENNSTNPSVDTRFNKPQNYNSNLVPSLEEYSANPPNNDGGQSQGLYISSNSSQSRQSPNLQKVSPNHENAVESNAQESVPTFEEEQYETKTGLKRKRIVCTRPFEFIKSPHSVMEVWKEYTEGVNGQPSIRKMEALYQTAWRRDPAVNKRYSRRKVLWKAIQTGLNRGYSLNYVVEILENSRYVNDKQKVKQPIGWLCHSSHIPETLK
# Test: PBM E-score (8-mer binding enrichment) (E-score (-0.5 to 0.5)); higher = stronger / more preferred TF binding; most listed sequences are background and not binding sites
# Conditions: protein concentration: 200 nM; construct: GST-full length
# Method in brief: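 Detection of bound protein used fluorescent anti-GST, with scans normalised by masliner. The proteins were GST-tagged yeast transcription factors applied at about 100-200 nM to universal all-10-mer Agilent arrays made double-stranded by primer extension. Each ungapped eight-base word, pooled with its reverse complement, was scored with an E-score from the Universal PBM Analysis Suite.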
row,Sequence,PBM E-score
1,TAACACGA,-0.0171
2,CTGCTCAA,0.0116
3,ACTGTGAC,0.259
4,GGCAAGCA,-0.151
5,AACCATAG,-0.105
6,CATTCCAC,-0.0291
7,GGCTTAGA,-0.0971
8,AACTCCAG,-0.245
9,CTGGGACC,-0.269
10,CCGCGATC,-0.00948
11,GCGGAAGC,-0.102
12,ACTTCACT,-0.0662
13,AGTTGGCA,-0.0822
14,ATTTAAAG,0.15
15,AATAAGGA,-0.0321
16,GTGATAGA,-0.00307
17,GCAATGAA,0.0712
18,CTAACGGC,0.0128
19,CGACGGGC,-0.139
20,CATTCGCG,0.156
21,CAAGCATG,0.0621
22,AATCGGGC,0.188
23,CAATTCAA,0.0737
24,ACCTTAAT,-0.0456
25,ATGACTCG,-0.0628

row,Sequence,PBM E-score
1,ACACGAGC,-0.0693
2,ATTTAAAT,0.137
3,GGATTGCC,-0.153
4,ACAATCCA,0.18
5,AACTTAGC,-0.0744
6,AGATAAAG,0.0852
7,CAGCTGCC,-0.0571
8,AGTGTTTA,0.0747
9,AGCCAAGA,-0.0586
10,CCCTTTGC,-0.0591
11,ATTTCGGC,0.135
12,ACTTTGCC,0.013
13,AGTGACGG,-0.0864
14,ATTGGACG,0.211
15,GTATATAA,0.177
16,AGAGAAAA,0.0628
17,TCCGATCA,0.213
18,GTCAGTGA,0.0595
19,CACTACGG,-0.121
20,ACGACGGC,-0.0669
21,ACATATAT,0.141
22,GGACTTAC,0.273
23,ATGAGATA,0.00206
24,CCGGTCCG,-0.0392
25,CCCGTCTC,-0.308

row,Sequence,PBM E-score
1,TCCGAGGA,0.19
2,TCAATCCA,0.0372
3,ATGGGTTG,-0.0641
4,CTAAGCAG,-0.134
5,GCACCCAA,-0.191
6,GTCATGTA,0.0651
7,GCGATCAA,-0.0507
8,ACGAGCCT,-0.209
9,ACCAGCAA,0.202
10,CTACCCTC,-0.219
11,AGCTAGAC,-0.0225
12,AGCGTATC,-0.146
13,CGTAGGCC,-0.109
14,GCCCTCGA,-0.175
15,GATTGGCA,-0.127
16,AAGCATAA,-0.0301
17,GATGCTAA,0.111
18,ACTCCGGC,0.176
19,ATCGTAGC,0.0763
20,GACAACTA,0.274
21,AGTGTGAA,-0.0122
22,AGCGTCCG,0.0162
23,GAATGTTA,0.0288
24,AAAGAGAC,0.102
25,ATGCATCG,0.0513

row,Sequence,PBM E-score
1,ACGGCGAC,-0.0453
2,AATTTAGG,0.132
3,CCAGCAAC,0.0523
4,CGGATTTA,0.0815
5,AGACATAC,0.327
6,AGAGGCAT,-0.0984
7,ATACAGTA,0.192
8,CCGGGCAG,-0.12
9,CAGCCGCG,-0.0535
10,TATTTCCA,-0.0318
11,AAGCGTTG,-0.104
12,AGGAGAGC,-0.349
13,CTATAGCA,0.0153
14,CGGAGCCC,-0.245
15,AGAAGACA,0.101
16,ACTTGACC,0.0395
17,ACCGTGAC,-0.169
18,CGTGGTAC,-0.0656
19,AAAAATGG,0.311
20,TCCATACA,0.155
21,GACACGTA,0.277
22,GGCTCACA,-0.0634
23,AGCGTCTC,-0.165
24,AAGGACCG,-0.00955
25,CAGCGTAG,-0.113

row,Sequence,PBM E-score
1,CATGTCGG,0.224
2,CTACTTAA,-0.0541
3,CATTCAAG,-0.031
4,CCTCCGTA,-0.147
5,AGTCCTAG,0.277
6,GAGTATGC,-0.0467
7,CATCGAGC,-0.0382
8,CAGTCGTC,-0.0431
9,GAATGGCC,-0.205
10,CTCCGGTC,-0.0955
11,CCTCCTGA,-0.153
12,CCCGATAA,-0.00187
13,TCTGTGAA,0.157
14,TATATTCA,0.0535
15,GTATTGCA,-0.0906
16,CCAAGTGG,0.0408
17,CGCTCGGA,0.134
18,TAGTACCA,0.11
19,CAGTTATA,0.0609
20,CCGTAGAC,-0.0592
21,ACCTTCCT,-0.285
22,AACCCCTC,-0.189
23,CAATAACG,0.14
24,TATATGGA,0.0978
25,ACGTGTTC,-0.114

row,Sequence,PBM E-score
1,TACGCTAA,-0.0121
2,CAAAAAAA,0.201
3,CATCAGCG,-0.124
4,AGTTCCAC,-0.0563
5,CGGCGCGC,0.184
6,ATCCAAAC,0.0456
7,AGATTCAC,-0.218
8,AACCAGCC,-0.119
9,CTTATTTA,0.0475
10,TAGGCCGA,0.00568
11,GCACCGGA,-0.0489
12,CCAATACC,0.00365
13,CAACATGC,-0.059
14,CTGTTTTA,0.122
15,CGAGTGGA,-0.0134
16,AAAAGGTC,0.0953
17,ACCTAGAT,-0.199
18,CGTCCGTA,0.0029
19,CTTGTCCA,0.464
20,CAACAATC,0.0209
21,ATAGCGAA,0.0824
22,GTCACAGA,0.213
23,CCCTCTAA,-0.165
24,CAACTCGC,0.105
25,CACGTACG,0.046

row,Sequence,PBM E-score
1,AGACGGTC,-0.24
2,TGAGAGAA,0.00621
3,AAACTGCG,0.0328
4,ATGCGCGG,-0.0121
5,GTTTGTTA,0.0854
6,ATGGCAGA,0.0312
7,ATTGATCG,-0.0367
8,CAACGTGA,-0.082
9,ATGATGCG,0.127
10,CCCGAGTC,0.0567
11,CCGCGCCG,0.0126
12,CACACCAC,0.0275
13,AATCCTTC,-0.0471
14,TACGTTCA,0.107
15,GGTCCGAA,0.128
16,ACACCAAC,-0.116
17,GCGGAACC,0.0238
18,ACGCTACA,-0.132
19,TACATATA,0.249
20,CCATCTTC,0.117
21,TCACAGGA,0.0601
22,TGTTGTAA,0.0101
